# In the supplement of paper PMC3334620:
# In all, about 33,000 sequences were measured (“E-score (-0.5 to 0.5)”: median about -0.036, highest 2% from about 0.37 on). The list shows a part of the results.
# Biological target: T1, Yer064c (UniProt P40041)
# T1 sequence: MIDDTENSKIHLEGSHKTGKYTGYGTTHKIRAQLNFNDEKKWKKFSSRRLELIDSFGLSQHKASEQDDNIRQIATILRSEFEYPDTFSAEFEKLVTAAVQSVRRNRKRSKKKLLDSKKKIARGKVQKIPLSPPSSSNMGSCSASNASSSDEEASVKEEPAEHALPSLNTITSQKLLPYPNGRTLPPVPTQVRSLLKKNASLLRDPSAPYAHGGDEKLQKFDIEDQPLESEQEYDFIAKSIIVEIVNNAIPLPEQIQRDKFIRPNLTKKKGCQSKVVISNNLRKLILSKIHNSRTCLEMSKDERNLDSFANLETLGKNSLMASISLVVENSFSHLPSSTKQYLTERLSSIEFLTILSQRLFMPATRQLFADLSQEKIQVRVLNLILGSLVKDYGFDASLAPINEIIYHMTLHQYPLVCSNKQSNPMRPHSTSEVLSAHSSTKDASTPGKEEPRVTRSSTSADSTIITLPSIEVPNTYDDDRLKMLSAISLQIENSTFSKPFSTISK
# Assay: PBM E-score (8-mer binding enrichment) (E-score (-0.5 to 0.5)); higher = stronger / more preferred TF binding; most listed sequences are background and not binding sites
# Details: protein concentration: 200 nM; construct: GST-full length
# Outline: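 Masliner-normalised scans of fluorescent anti-GST signal were the basis for scoring. That signal came from GST-tagged yeast transcription factors applied at about 100-200 nM to double-stranded universal all-10-mer Agilent arrays on fresh or once-stripped slides. Each ungapped eight-base word, pooled with its reverse complement, received an E-score from the Universal PBM Analysis Suite.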
row,Sequence,PBM E-score
1,AAGTTTTA,0.068
2,GTTCGAAA,0.0265
3,ATAGGTTC,-0.0381
4,AACCCCCT,-0.239
5,CTTATGAA,0.107
6,TACAGTAA,0.128
7,CGTTATCA,-0.0521
8,ATTACATG,0.151
9,ATGACGGG,0.0379
10,CATGGAAG,-0.0616
11,AAAGTAGC,-0.0562
12,AAGCAATC,0.0621
13,ACTCTGTA,0.0381
14,GTGGGGTA,-0.0915
15,AGAACTCC,-0.157
16,GAGGTTGC,-0.251
17,AACATGAA,-0.0474
18,TGTTCGAA,-0.0433
19,ACTCGTTG,0.204
20,GAAATCGA,0.0926
21,CCCTTCGA,-0.181
22,AGCTTCAA,-0.202
23,AGAATCCT,-0.0297
24,TAGTGTCA,0.147
25,ATTTTAAC,-0.0572

row,Sequence,PBM E-score
1,ATTCACCC,0.0614
2,AAGACAGC,-0.197
3,TCCCGGAA,-0.0771
4,GGAATTAC,-0.0663
5,CGAGAGAA,-0.0426
6,CTCGTTTC,0.0183
7,CGAGGCAC,-0.124
8,CCGTAATA,0.0217
9,TACGTTGA,0.11
10,AATAGGAT,0.0023
11,CGCTCTCA,-0.0828
12,AATGTGGA,-0.0311
13,CATTCAGG,-0.0478
14,ACAGGCAA,-0.167
15,GACGGGTA,0.007
16,CATAGGGC,-0.242
17,ATTGCCAA,-0.159
18,ATATGATC,0.165
19,AGAGCGGC,-0.239
20,GCCAAAGA,-0.0953
21,GTGAAGCA,-0.132
22,GAATGCGC,-0.204
23,CGGTGTGA,0.174
24,CCTGGGGA,-0.219
25,ACCGATGC,-0.217

row,Sequence,PBM E-score
1,CAAGAGCG,-0.0975
2,GTAGACAC,0.0309
3,CAGGTAAA,-0.0589
4,CACACCGA,0.0976
5,GGTTGACA,0.0178
6,ACATAACT,0.117
7,AAGAAAGG,-0.171
8,AGCTTCAG,-0.0949
9,AGAAAATG,-0.00161
10,GCTGAGCC,0.0663
11,CATGCGAG,0.0956
12,ATCGAAGC,-0.295
13,ACAGGGAT,-0.0572
14,ACCAACCA,-0.143
15,CGTCGTTC,-0.0954
16,CAGGGACC,-0.191
17,AGCCCCAT,-0.172
18,CCATGGGA,-0.19
19,CTTCCGTC,-0.123
20,CCTGGGTA,-0.0946
21,CATGAGAA,0.00801
22,AAAACCCT,-0.047
23,CCATTCAC,0.031
24,CCGGGGCA,-0.0809
25,GGGCCGAC,0.104

row,Sequence,PBM E-score
1,CCCATTAC,0.0439
2,CGTTTACA,-0.164
3,CCATCTAG,-0.0675
4,GCTGCTAC,-0.0263
5,GATACTGA,0.0925
6,CTTGCTAA,-0.13
7,ACTCGGCG,0.15
8,ACCAAGAT,-0.16
9,AGTGAAGG,0.149
10,ACCGTATG,-0.0534
11,CCACCAAA,-0.117
12,GATGGGCA,0.00841
13,ACAGTCCA,0.14
14,TAATGCTA,0.15
15,CAAGTCAA,0.196
16,GGTTCCTA,-0.0216
17,ACAAGAGG,-0.124
18,AGCTTGAG,0.00041
19,CCGCGGCA,-0.183
20,CAACCATG,0.0873
21,GTGGCTCA,0.33
22,ATCTCCAG,0.0544
23,ATCTGTGA,0.0846
24,CGTATGAG,0.18
25,AAAGCACC,-0.337

row,Sequence,PBM E-score
1,AAAATCTG,-0.0593
2,TAGTAGCA,-0.207
3,CGCTTCCC,-0.239
4,CGTAAGGA,-0.0707
5,AGTTCCAG,-0.286
6,AGAGTTCG,0.14
7,GTGACGTA,-0.0328
8,CCTCTCCC,-0.162
9,ATCGATGA,0.274
10,AGTGCCGC,-0.214
11,CCAGTCGC,-0.0128
12,ACCTACGA,-0.0247
13,CCTCAGAA,-0.0751
14,CACTGATA,0.049
15,CAGGCCTA,-0.13
16,GATGGGAA,-0.279
17,CCTGAAGG,-0.149
18,GCACAAAC,-0.00349
19,CCCCAACA,-0.212
20,AGGTTAAG,0.0497
21,CGCCCCGA,-0.0409
22,CTAGCGAA,0.173
23,AGATGAAA,-0.0202
24,CGGCCTAA,-0.0551
25,CGGTAACG,-0.017

row,Sequence,PBM E-score
1,GGCGAGCC,-0.22
2,CAGACGCA,-0.205
3,CATCGATC,0.0781
4,CGGTGGTC,-0.218
5,AGCCAGGA,0.00892
6,ACATTCAT,0.0768
7,TCAAACCA,0.17
8,CACTCTAC,0.0903
9,ACCAGCAG,-0.103
10,ATCGGGCA,-0.13
11,TGCAACAA,0.0339
12,GGCTCACC,0.116
13,GTATTAGA,-0.0144
14,GCGGAGCC,-0.14
15,ATAAGATG,0.0671
16,CATATGTC,-0.00205
17,ATACCACC,-0.108
18,CATGCTAG,-0.159
19,GGTTCTAC,-0.178
20,CTTGCTCC,0.0348
21,GTCGACTA,0.335
22,CTCTATCC,-0.267
23,GCTCAAAA,0.116
24,AATTCAAG,0.0474
25,ACTTGGGA,-0.0214

row,Sequence,PBM E-score
1,TTATTAAA,0.138
2,CTCATGCA,0.113
3,GGCATGCC,-0.277
4,AGATTCGA,0.112
5,AAAGACCT,-0.0342
6,GATTGATA,0.261
7,ATTTTCTC,-0.00289
8,AGTAGCCA,0.242
9,CTGATAGA,0.116
10,CATGCTGC,-0.0684
11,CCCTTATA,-0.188
12,AAGGAAAG,-0.207
13,AACGGGGC,-0.124
14,CTCAAGTC,0.271
15,AAACGCCA,-0.05
16,AATATGGT,0.00839
17,ATAGGACC,-0.281
18,AACGTCAA,-0.02
19,CTTGTGAA,-0.0204
20,AAGGTGCA,-0.182
21,CGTAGTCC,0.262
22,GATTCATA,0.381
23,CAAAGAGG,-0.178
24,CTAGGAGC,-0.0611
25,CAATAGCC,-0.0998

row,Sequence,PBM E-score
1,AATCGACT,0.258
2,CCTAGCAA,-0.175
3,ACGTGACT,0.468
4,CCTCGCTC,-0.111
5,TGGTTCAA,0.265
6,GACACGAC,0.208
7,AATGACTA,0.487
8,AAGATGAT,0.348
9,CGACCGCA,-0.352
10,AGCTGTAG,0.0475
11,ATGTGGGG,-0.163
12,GCCCCCAA,-0.254
13,ACATTGGT,-0.152
14,GGTAGAAC,-0.205
15,GAGGTGGC,-0.0588
16,ACTATAAG,0.213
17,TGGATTAA,0.172
18,GGCTTGCA,-0.0945
19,CGCTGACA,-0.082
20,CTCCCGTA,-0.0922
21,AGCCGAAA,0.0999
22,GTGCTAAC,-0.0654
23,AATTTACC,-0.11
24,ATCATATA,0.195
25,CCACAATC,0.163

row,Sequence,PBM E-score
1,CTCCTATA,-0.06
2,TAAGGACA,-0.11
3,GCACTTAC,-0.222
4,GAACTGAA,-0.0409
5,AGTCCGGC,0.191
6,CGTGCCTC,0.0173
7,CAGGAAGA,-0.0436
8,ACGTCTGA,0.0833
9,ACATAGAG,-0.0729
10,ACGGACCA,-0.125
11,CTGACACC,0.0472
12,ACAATGCT,-0.0617
13,AGTCTACG,0.0206
14,CAGGGTAG,-0.107
15,AGCAACAC,-0.0475
16,GGTCCACC,-0.266
17,GTCCAGAC,-0.116
18,AGCTATCA,-0.0169
19,GCTACTGA,0.18
